# From PubChem BioAssay AID1461 (National Center for Advancing Translational Sciences (NCATS), 2008)
# In all, about 220,000 compounds went through this assay and about 2,300 (1%) were called active. Not shown: some 6% with an inconclusive outcome. Calls follow the shape of the dose curve; as a rule, active = well fitted inhibition curve with a large enough effect; inconclusive = small, poorly fitted or top-dose-only effect, or effect the other way; inactive = no such curve, though single readings can be large or run the other way. This is a selection; strong and weak results do not stand in their true shares. Some structures have more than one record in an assay (separate samples or runs), and their calls can disagree.
# Target: Neuropeptide S receptor (Homo sapiens) (UniProt Q6W5P4)
# Assay: qHTS Assay for Antagonists of the Neuropeptide S Receptor: cAMP Signal Transduction; also: nearly all actives have a fitted effect of over 50% in size
# Conditions: CHO-NPSR cells, cAMP TR-FRET, antagonist mode; series mostly up to 38.3 µM; activity change, negative = inhibition: at the top concentration
# Excerpt: NIH Chemical Genomics Center [NCGC] NIH Molecular Libraries Probe Production centers Network [MLPCN] MLPCN Grant: X01-DA026210-01 Assay Submitter (PI): Heilig, Markus Alexander NCGC Assay Overview: Neuropeptide S receptor (NPSR), previously known as GPR154, is a recently de-orphanized G protein coupled receptor. Its endogenous ligand is the 20 amino acids peptide Neuropeptide S (NPS). […] NPS and its receptor are found in various tissues. Specifically they are highly expressed in brain areas that have been implicated in modulation of arousal, stress and anxiety. Central administration of NPS in mice produces an unusual profile of activity by inducing wakefulness and arousal, while at the same time suppressing anxiety. Therefore, NPSR may represent a novel drug target for the treatment of sleep and anxiety disorders. To identify NPSR antagonists, we developed a cell-based cAMP assay. NPS can stimulate the production of cAMP in Chinese hamster ovary cells stably expressing NPS receptor. This change in intracellular cAMP level can be detected by a homogeneous LANCE cAMP assay based on the TR-FRET (time resolved fluorescence resonance energy transfer) between a europium-labeled cAMP tracer complex and a cAMP-specific antibody labeled with Alexa Fluor 647. The europium-labeled cAMP tracer complex is formed by the tight interaction between Biotin-cAMP (b-cAMP) and streptavidin labeled with Europium-W8044 chelate (Eu-SA). Light pulse at 320 nm excites the europium of the cAMP tracer and the energy emitted is transferred to the Alexa molecule bound to the cAMP antibody, generating a TR-FRET signal at 665 nm. Residual energy from the europium will produce a light at 620 nm. The native unlabeled cAMP from cell lysates competes with the europium-cAMP tracer for antibody binding and reversely reduces the emission signal of Alexa by interrupting FRET between the two labeled molecules. Both emission signals from the FRET donor (620 nm) and the acceptor (665 nm) can be detected by a plate reader in the TRF mode. Expression of result in fluorescence ratio (665 nm/620 nm) helps to normalize differences due to cell density and reagent dispensing. This assay was successfully optimized to a 1536-well plate format.
# NCGC Assay Protocol Summary: A Chinese hamster ovary (CHO) cell line stably expressing the NPS receptor (CHO-NPSR) was obtained from Dr. Heilig lab at NIAAA and maintained in F-12 Kaighn's media (Invitrogen, Carlsbad, CA, 21127) supplemented with 10 % FBS, 100 units/ml penicillin, 100 ug/ml streptomycin and 250 ug/ml geneticin at 37C, 5% CO2 in a humidified atmosphere. Before the assay, aliquots of cells were frozen and stored at -135C. The assay was performed in 1536-well format. Data are reported for both the ratio of the two emission wavelengths, and also for the component 'donor' channel, Em2=620. Data were normalized to the controls for basal activity (DMSO only) and 100% inhibition (No NPS control). IC50 values were determined from concentration-response data modeled with the standard Hill equation. NPS 1536-well assay protocol: (1) Fresh or frozen CHO-NPSR cells were suspended in F-12 Kaighn's media supplemented with 10 % FBS, 100 units/ml penicillin and 100 ug/ml streptomycin. Cells were plated at 4 ul/well (1200 cells) to white, tissue culture treated 1536-well plates, and then cultured at 37C, 5 % CO2 for 16 to 30 hours. (2) Add 23 nl/well of compound in DMSO solution. The final titration for each compound was between 0.6 nM and 46 uM. (3) Add 1 ul of stimulation reagent (1X HBSS buffer, 5 mM HEPES, 0.1% BSA, 500 uM RO-201724 (Sigma-Aldrich, B8279), 1.5% Alexa 647-labeled anti-cAMP antibody (from Perkin Elmer), 100 nM NPS) (4) Incubation at 37C, 5 % CO2 for 60 min. (5) Add 1 ul/well detection reagent. Detection reagent was prepared by adding biotin labeled cAMP (4%), streptavidin labeled with Europium-W8044 chelate (1.33%) and TritonX-100 (1%) to detection buffer. […]
# % is scaled to controls: 0 for no effect and ±100 for the full control effect; potency is read from the fitted curve at half-maximal effect.
# UniProt Q6W5P4, sequence (Q6W5P4 whole entry, looked up): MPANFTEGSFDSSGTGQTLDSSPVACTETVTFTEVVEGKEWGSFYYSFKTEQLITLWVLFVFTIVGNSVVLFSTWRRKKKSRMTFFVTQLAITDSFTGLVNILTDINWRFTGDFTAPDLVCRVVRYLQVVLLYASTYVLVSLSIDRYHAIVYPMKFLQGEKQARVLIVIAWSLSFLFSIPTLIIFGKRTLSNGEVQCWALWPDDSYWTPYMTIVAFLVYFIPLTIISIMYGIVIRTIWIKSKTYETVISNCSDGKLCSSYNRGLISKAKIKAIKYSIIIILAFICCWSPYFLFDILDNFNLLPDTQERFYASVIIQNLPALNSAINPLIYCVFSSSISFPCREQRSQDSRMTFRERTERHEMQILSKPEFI
Structure (SMILES),"activity change, negative = inhibition",Potency
Cc1ccccc1OCc1n(CC(=O)OC2CC(C)CCC2C(C)C)c2ccccc2[n+]1C (configuration not stated),inactive: -52.3%,–
CCO[C@@H]1OC(C(=O)N2CCCCCCC2)=C[C@H](C2CCCCC2)[C@H]1CCCO,inactive: 51.5%,–
CN1CCC(=C2c3ccccc3CC(=O)c3sccc32)CC1,–,inactive
S=C(Nc1ccccc1)Nc1nccs1,inactive: -19.6% [at 46.1 µM],–
O=C(NCc1ccccc1)C1=C[C@H](c2ccc(C(F)(F)F)cc2)C[C@H](OCc2ccc(CO)cc2)O1,inactive: 43.6%,–
CCOC(=O)/C(C#N)=C/c1c(OCC)n(CC)c2ccccc12,inactive: -40.1%,–
O=C1C=C(Nc2ccccc2)c2ccccc2C1=O,–,active: 10 µM
CCNC(=O)/C(=C\c1ccc2c(c1)OCO2)NC(=O)c1ccc(Br)cc1,inactive: 2.08% [at 46.1 µM],–
O=C(C1=C[C@@H](c2ccc(C(F)(F)F)cc2)C[C@@H](OCCCCO)O1)N1CCN(Cc2ccccc2)CC1,inactive: 57.6%,–
O=C1CCc2cc(OCCCCc3nnnn3C3CCCCC3)ccc2N1,–,inactive
CCN(CCCNC(=O)C1c2ccccc2C(=O)N(CCOC)C1c1ccc(F)cc1)Cc1ccccc1 (configuration not stated),–,active: 10 µM
O=C(N/C(=C/c1cccc([N+](=O)[O-])c1)C(=O)N1CCCCC1)c1cccs1,inactive: 44.9%,–
O=C(Nc1ccccc1)C1=C[C@H](c2ccc(C(F)(F)F)cc2)C[C@H](OCc2ccc(CO)cc2)O1,inactive: -48.9%,–
CCOC(=O)c1[nH]c(C)c(CCC(=O)O)c1C,inactive: 0.162% [at 46.1 µM],–
CCOC(=O)/C(C#N)=C1\C=CN(C)C(C)=N1,inactive: -1.3% [at 46.1 µM],–
C/C=C(/C)C(=O)O[C@@H]1c2c(ccc3ccc(=O)oc23)OC(C)(C)[C@@H]1OC(=O)/C(C)=C\C,inactive: -33.8%,–
CN(C)CC[C@@H](c1ccc(Cl)cc1)c1ccccn1,inactive: 8.86% [at 46.1 µM],–
CCOC(=O)c1ccc(N=c2sc(C(=O)OC)cc(=O)n2CCCN2CCOCC2)cc1,inactive: -10.8% [at 46.1 µM],–
O=C(C1=C[C@@H](c2coc3ccccc3c2=O)C[C@@H](OCCCCO)O1)N1CCN(Cc2ccc3c(c2)OCO3)CC1,inactive: 8.79%,–
COC(=O)c1sccc1NC(=O)/C=C/c1ccc(Cl)cc1Cl,inactive: 1.87% [at 46.1 µM],–
Cc1ccccc1C(OCCN(C)C)c1ccccc1 (configuration not stated),–,inactive
CC(=O)SC1CC2=CC(=O)CCC2(C)C2CCC3(C)C(CCC34CCC(=O)O4)C12 (configuration not stated),inactive: -41.4%,–
CCN(CC)S(=O)(=O)c1ccc(NC(=O)Nc2cccc(C(F)(F)F)c2)cc1,–,active: 15.8 µM
CCOC(=O)c1c(NC(=O)c2ccc(N3C(=O)[C@@H]4[C@H](C3=O)[C@H]3C=C[C@@H]4C3)cc2)sc2c1CCCC2,inactive: -11.3%,–

Structure (SMILES),"activity change, negative = inhibition",Potency
COCC(=O)O[C@]1(CCN(C)CCCc2nc3ccccc3[nH]2)CCc2cc(F)ccc2[C@@H]1C(C)C,–,active: 10 µM
Cc1ccc(NC(=O)C2=C(c3ccccc3)S(=O)(=O)CCS2(=O)=O)cc1,–,active: 10 µM
CCO[C@H]1OC(C(=O)NCc2ccccc2)=C[C@@H](c2ccc(Br)cc2)[C@@H]1CCCO,inactive: 2.45%,–
CCO[C@H]1OC(C(=O)NCc2ccccc2)=C[C@@H](c2ccc(C(F)(F)F)cc2)[C@@H]1CCCO,inactive: 51.7%,–
CC(=O)OCC1=C(C(=O)O)N2C(=O)[C@@H](NC(=O)Cc3cccs3)[C@H]2SC1,inactive: -6.98%,–
CCC(=O)/C=C1/Sc2ccc(OC)cc2N1CC,inactive: -15.9% [at 46.1 µM],–
COc1ccc(NS(=O)(=O)c2ccc(NC(=S)NC(=O)/C=C/c3ccccc3)cc2)nn1,–,active: 7.94 µM
[2H]c1c([2H])c([2H])c(-c2nc(N3CCCCCC3)sc2C(=O)c2ccccc2)c([2H])c1[2H],inactive: -28.3% [at 46.1 µM],–
Cc1ccc(Cl)cc1NC(=O)COC(=O)C12CC3CC(CC(C3)C1)C2,inactive: -20.9% [at 46.1 µM],–
NC(CO)C(=O)NNCc1ccc(O)c(O)c1O (configuration not stated),inactive: 0.362%,–
O=C(O)/C=C/c1cnc[nH]1,inactive: -15%,–
CN(C)CCCNC(=O)c1ccc(-c2nc(-c3ccc(Cl)cc3)cs2)cc1,–,active: 10 µM
CC(=O)n1cc([C@H]2C=C(C(=O)N3CCN(Cc4ccccc4)CC3)O[C@@H](OCc3ccc(CO)cc3)C2)c2ccccc21,inactive: 48.8%,–
N=C1S/C(=C\c2ccco2)C(=O)N1c1nccs1,–,active: 6.31 µM
O=C(O)CCn1cc(/C=C/C(=O)c2ccc(Cl)cc2)c(-c2cccc(Br)c2)n1,inactive: -57.8%,–
Cc1[nH]c2ccc(F)cc2c1CCN(Cc1cccnc1)C(=S)Nc1cccc(F)c1,–,active: 10 µM
COc1cc(/C=C2/CCC/C(=C\c3cc(O)c(OC)c(Cl)c3)C2=O)cc(Cl)c1O,–,active: 7.94 µM
CC(N=C(NC#N)Nc1ccncc1)C(C)(C)C (configuration not stated),inactive: 17.1%,–
CC1CCC/C=C/C(=O)c2c(O)cc(O)cc2CC(=O)O1 (configuration not stated),–,active: 5.01 µM
COc1ccc(CNC(=O)CSc2nc(-c3ccccc3)cc(-c3cccs3)c2C#N)cc1,–,active: 10 µM
CC(C)(C)[C@@H]1C=C(C(=O)NCc2ccccc2)O[C@H](OCc2ccc(CO)cc2)C1,inactive: 38.5%,–
CN(C)CCCN1c2ccccc2Sc2ccc(Cl)cc21,inactive: -0.486% [at 46.1 µM],–
Nc1ccn([C@@H]2O[C@H](CO)[C@@H](O)[C@@H]2O)c(=O)n1,inactive: -19.3%,–
